This assay deals with BVDV-1 (strain NADL). In words: Infectious virus yield in culture supernatant. To be noted: Bovine viral diarrhea virus isolates and strains, MDBK, read-out: EC50 for inhibition of infectious virus yield in the culture supernatant.

As to `O=C(Nc1ccn(-c2ccccc2)n1)c1cc(-c2ccccc2)nc2ccccc12` [TO502-2403, 2-phenyl-N-(1-phenyl-1H-pyrazol-3-yl)-4-Quinolinecarboxamide], the concentration giving a half-maximal response (EC50) is 200 nM.
In the case of `Cc1ccc2nc(NC(=O)c3cc(-c4ccco4)nc4ccccc34)sc2c1` [TO505-6180, 2-(2-furanyl)-N-(6-methyl-2-benzothiazolyl)-4-Quinolinecarboxamide], the concentration for a half-maximal effect (EC50) was 600 nM.

The term EC50 denotes the midpoint of the concentration-response curve.

Values taken from publication PMC7144022, “Quinolinecarboxamides Inhibit the Replication of the Bovine Viral Diarrhea Virus by Targeting a Hot Spot for the Inhibition of Pestivirus Replication in the RNA-Dependent RNA Polymerase” (Molecules, 2020).
